# The supplement of paper PMC8728848
# The list shows a part of the results.
# B1: 3FTT (Staphylococcus aureus), Q5HCZ5 (protein)
# chain: MTEKEKMLAEKWYDANFDQYLINERARAKDICFELNHTRPSATNKRKELIDQLFQTTTDNVSISIPFDTDYGWNVKLGKNVYVNTNCYFMDGGQITIGDNVFIGPNCGFYTATHPLNFHHRNEGFEKAGPIHIGSNTWFGGHVAVLPGVTIGEGSVIGAGSVVTKDIPPHSLAVGNPCKVVRKIDNDLPSETLNDETIK
# Legend:
# Test in all cases: glycan array binding signal (z-score within array); higher = stronger binding
# Conditions in all cases: glycan notation: IUPAC condensed, linker removed
# [1] = target: Fuc(a1-2)Gal(b1-4)[Fuc(a1-3)]GlcNAc
# How it was run: (§1)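 The binding signal is a Z-score computed within each array. Data were drawn from 3228 arrays in the Consortium for Functional Glycomics database, restricted to those with a known protein sequence. Scores were averaged over arrays of the same protein sequence at different concentrations or buffers, and over linkers, and negative values can be taken as non-binding.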
# [2] = target: Fuc(a1-2)Gal(b1-4)[Fuc(a1-3)]GlcNAc(b1-2)Man(a1-3)[Fuc(a1-2)Gal(b1-4)[Fuc(a1-3)]GlcNAc(b1-2)Man(a1-6)]Man(b1-4)GlcNAc(b1-4)GlcNAc
# How it was run: as §1
# [3] = target: Fuc(a1-2)Gal(b1-4)[Fuc(a1-3)]GlcNAc(b1-2)[Fuc(a1-2)Gal(b1-4)[Fuc(a1-3)]GlcNAc(b1-4)]Man(a1-3)[Fuc(a1-2)Gal(b1-4)[Fuc(a1-3)]GlcNAc(b1-2)Man(a1-6)]Man(b1-4)GlcNAc(b1-4)GlcNAc
# How it was run: as §1
# [4] = target: Fuc(a1-2)Gal(b1-4)[Fuc(a1-3)]GlcNAc(b1-3)Gal(b1-4)[Fuc(a1-3)]GlcNAc
# How it was run: as §1
# [5] = target: Fuc(a1-2)Gal(b1-4)[Fuc(a1-3)]GlcNAc(b1-3)Gal(b1-4)[Fuc(a1-3)]GlcNAc(b1-3)Gal(b1-4)[Fuc(a1-3)]GlcNAc
# How it was run: as §1
# [6] = target: Fuc(a1-2)Gal(b1-4)[Fuc(a1-3)]GlcNAc(b1-3)GalNAc
# How it was run: as §1
# Fuc(a1-2)Gal6S(b1-4)Glc = target: Fuc(a1-2)Gal6S(b1-4)Glc
# How it was run: as §1
# [7] = target: Fuc(a1-2)Gal6S(b1-4)Glc6S
# How it was run: as §1
# [8] = target: Fuc(a1-2)Gal6S(b1-4)GlcNAc
# How it was run: as §1
# Fuc(a1-2)[Gal(a1-3)]Gal = target: Fuc(a1-2)[Gal(a1-3)]Gal
# How it was run: as §1
# [9] = target: Fuc(a1-2)[Gal(a1-3)]Gal(b1-3)GalNAc
# How it was run: as §1
# [10] = target: Fuc(a1-2)[Gal(a1-3)]Gal(b1-3)GlcNAc
# How it was run: as §1
# [11] = target: Fuc(a1-2)[Gal(a1-3)]Gal(b1-3)GlcNAc(b1-2)Man(a1-3)[Fuc(a1-2)[Gal(a1-3)]Gal(b1-3)GlcNAc(b1-2)Man(a1-6)]Man(b1-4)GlcNAc(b1-4)GlcNAc
# How it was run: as §1
# [12] = target: Fuc(a1-2)[Gal(a1-3)]Gal(b1-3)GlcNAc(b1-2)Man(a1-3)[Fuc(a1-2)[Gal(a1-3)]Gal(b1-3)GlcNAc(b1-2)Man(a1-6)]Man(b1-4)GlcNAc(b1-4)[Fuc(a1-6)]GlcNAc
# How it was run: as §1
# [13] = target: Fuc(a1-2)[Gal(a1-3)]Gal(b1-3)GlcNAc(b1-3)GalNAc
# How it was run: as §1
# [14] = target: Fuc(a1-2)[Gal(a1-3)]Gal(b1-4)Glc
# How it was run: as §1
# [15] = target: Fuc(a1-2)[Gal(a1-3)]Gal(b1-4)GlcNAc
# How it was run: as §1
# [16] = target: Fuc(a1-2)[Gal(a1-3)]Gal(b1-4)GlcNAc(b1-2)Man(a1-3)[Fuc(a1-2)[Gal(a1-3)]Gal(b1-4)GlcNAc(b1-2)Man(a1-6)]Man(b1-4)GlcNAc(b1-4)GlcNAc
# How it was run: as §1
# [17] = target: Fuc(a1-2)[Gal(a1-3)]Gal(b1-4)GlcNAc(b1-2)Man(a1-3)[Fuc(a1-2)[Gal(a1-3)]Gal(b1-4)GlcNAc(b1-2)Man(a1-6)]Man(b1-4)GlcNAc(b1-4)[Fuc(a1-6)]GlcNAc
# How it was run: as §1
# [18] = target: Fuc(a1-2)[Gal(a1-3)]Gal(b1-4)GlcNAc(b1-3)GalNAc
# How it was run: as §1
# [19] = target: Fuc(a1-2)[Gal(a1-3)]Gal(b1-4)[Fuc(a1-3)]Glc
# How it was run: as §1
# [20] = target: Fuc(a1-2)[Gal(a1-3)]Gal(b1-4)[Fuc(a1-3)]GlcNAc
# How it was run: as §1
# [21] = target: Fuc(a1-2)[Gal(a1-3)]Gal(b1-4)[Fuc(a1-3)]GlcNAc(b1-3)GalNAc
# How it was run: as §1
# [22] = target: Fuc(a1-2)[Gal(a1-4)]Gal(b1-4)GlcNAc
# How it was run: as §1
# [23] = target: Fuc(a1-2)[GalNAc(a1-3)]Gal
# How it was run: as §1
# [24] = target: Fuc(a1-2)[GalNAc(a1-3)]Gal(b1-3)GalNAc(a1-3)[Fuc(a1-2)]Gal(b1-4)GlcNAc
# How it was run: as §1
# [25] = target: Fuc(a1-2)[GalNAc(a1-3)]Gal(b1-3)GlcNAc
# How it was run: as §1
# [26] = target: Fuc(a1-2)[GalNAc(a1-3)]Gal(b1-3)GlcNAc(b1-2)Man(a1-3)[Fuc(a1-2)[GalNAc(a1-3)]Gal(b1-3)GlcNAc(b1-2)Man(a1-6)]Man(b1-4)GlcNAc(b1-4)GlcNAc
# How it was run: as §1
# [27] = target: Fuc(a1-2)[GalNAc(a1-3)]Gal(b1-3)GlcNAc(b1-2)Man(a1-3)[Fuc(a1-2)[GalNAc(a1-3)]Gal(b1-3)GlcNAc(b1-2)Man(a1-6)]Man(b1-4)GlcNAc(b1-4)[Fuc(a1-6)]GlcNAc
# How it was run: as §1
# [28] = target: Fuc(a1-2)[GalNAc(a1-3)]Gal(b1-3)GlcNAc(b1-3)GalNAc
# How it was run: as §1
binder,measurement,setting,value
B1,glycan array binding signal (z-score),[1],0
same,glycan array binding signal (z-score),[2],0.815
same,glycan array binding signal (z-score),[3],0.139
same,glycan array binding signal (z-score),[4],-0.14
same,glycan array binding signal (z-score),[5],-0.145
same,glycan array binding signal (z-score),[6],1.26
same,glycan array binding signal (z-score),Fuc(a1-2)Gal6S(b1-4)Glc,0.047
same,glycan array binding signal (z-score),[7],-0.243
same,glycan array binding signal (z-score),[8],-0.134
same,glycan array binding signal (z-score),Fuc(a1-2)[Gal(a1-3)]Gal,-0.257
same,glycan array binding signal (z-score),[9],-0.022
same,glycan array binding signal (z-score),[10],0.133
same,glycan array binding signal (z-score),[11],0.002
same,glycan array binding signal (z-score),[12],0.174
same,glycan array binding signal (z-score),[13],-0.098
same,glycan array binding signal (z-score),[14],-0.286
same,glycan array binding signal (z-score),[15],-0.003
same,glycan array binding signal (z-score),[16],-0.112
same,glycan array binding signal (z-score),[17],0.105
same,glycan array binding signal (z-score),[18],-0.06
same,glycan array binding signal (z-score),[19],-0.224
same,glycan array binding signal (z-score),[20],-0.178
same,glycan array binding signal (z-score),[21],0.139
same,glycan array binding signal (z-score),[22],-0.111
same,glycan array binding signal (z-score),[23],-0.204
same,glycan array binding signal (z-score),[24],-0.397
same,glycan array binding signal (z-score),[25],-0.204
same,glycan array binding signal (z-score),[26],0.032
same,glycan array binding signal (z-score),[27],0.227
same,glycan array binding signal (z-score),[28],0.255
